The text below walks through data of article PMC9911399, “Two distinct binding modes provide the RNA-binding protein RbFox with extraordinary sequence specificity”.

The chains are these.
B1: GUACACA (DNA:RNA)
RNA: GGGAGACCGGAAUUCAGAUUGUCCGUACACAUUAAAUCCCGUCGUAGCCACCA
DNA 1: CAATCTGAATTCCGGTCTCCC
DNA 2: TGGTGGCTACGACGGGATT
B2: UAUCUUA (DNA:RNA)
RNA: B1 RNA with G25U, U26A, A27U, A29U, C30U
DNA 1: CAATCTGAATTCCGGTCTCCC
DNA 2: TGGTGGCTACGACGGGATT
B3: UUGGUUA (DNA:RNA)
RNA: B1 RNA with G25U, A27G, C28G, A29U, C30U
DNA 1: CAATCTGAATTCCGGTCTCCC
DNA 2: TGGTGGCTACGACGGGATT
B4: UGGUUGA (DNA:RNA)
RNA: B1 RNA with G25U, U26G, A27G, C28U, A29U, C30G
DNA 1: CAATCTGAATTCCGGTCTCCC
DNA 2: TGGTGGCTACGACGGGATT
B5: CGGCUCA (DNA:RNA)
RNA: B1 RNA with G25C, U26G, A27G, A29U
DNA 1: CAATCTGAATTCCGGTCTCCC
DNA 2: TGGTGGCTACGACGGGATT
B6: CCUGAGG (DNA:RNA)
RNA: B1 RNA with G25C, U26C, A27U, C28G, C30G, A31G
DNA 1: CAATCTGAATTCCGGTCTCCC
DNA 2: TGGTGGCTACGACGGGATT
B7: UAAUGGA (DNA:RNA)
RNA: B1 RNA with G25U, U26A, C28U, A29G, C30G
DNA 1: CAATCTGAATTCCGGTCTCCC
DNA 2: TGGTGGCTACGACGGGATT
B8: AGUCGAC (DNA:RNA)
RNA: B1 RNA with G25A, U26G, A27U, A29G, C30A, A31C
DNA 1: CAATCTGAATTCCGGTCTCCC
DNA 2: TGGTGGCTACGACGGGATT
B9: CAAGUCG (DNA:RNA)
RNA: B1 RNA with G25C, U26A, C28G, A29U, A31G
DNA 1: CAATCTGAATTCCGGTCTCCC
DNA 2: TGGTGGCTACGACGGGATT
B10: GUUCGCG (DNA:RNA)
RNA: B1 RNA with A27U, A29G, A31G
DNA 1: CAATCTGAATTCCGGTCTCCC
DNA 2: TGGTGGCTACGACGGGATT
B11: GCGAAAU (DNA:RNA)
RNA: B1 RNA with U26C, A27G, C28A, C30A, A31U
DNA 1: CAATCTGAATTCCGGTCTCCC
DNA 2: TGGTGGCTACGACGGGATT
B12: UUGCCAG (DNA:RNA)
RNA: B1 RNA with G25U, A27G, A29C, C30A, A31G
DNA 1: CAATCTGAATTCCGGTCTCCC
DNA 2: TGGTGGCTACGACGGGATT
B13: GCGCUAC (DNA:RNA)
RNA: B1 RNA with U26C, A27G, A29U, C30A, A31C
DNA 1: CAATCTGAATTCCGGTCTCCC
DNA 2: TGGTGGCTACGACGGGATT
B14: CCCUAGA (DNA:RNA)
RNA: B1 RNA with G25C, U26C, A27C, C28U, C30G
DNA 1: CAATCTGAATTCCGGTCTCCC
DNA 2: TGGTGGCTACGACGGGATT
B15: UACUCGA (DNA:RNA)
RNA: B1 RNA with G25U, U26A, A27C, C28U, A29C, C30G
DNA 1: CAATCTGAATTCCGGTCTCCC
DNA 2: TGGTGGCTACGACGGGATT
B16: ACGAUGG (DNA:RNA)
RNA: GGGAGACCGGAAUUCAGAUUGUCCACGAUGGUUAAAUCCCGUCGUAGCCACCA
DNA 1: CAATCTGAATTCCGGTCTCCC
DNA 2: TGGTGGCTACGACGGGATT
B17: UUCUGAA (DNA:RNA)
RNA: B1 RNA with G25U, A27C, C28U, A29G, C30A
DNA 1: CAATCTGAATTCCGGTCTCCC
DNA 2: TGGTGGCTACGACGGGATT
B18: ACUGCAG (DNA:RNA)
RNA: B16 RNA with G27U, A28G, U29C, G30A
DNA 1: CAATCTGAATTCCGGTCTCCC
DNA 2: TGGTGGCTACGACGGGATT
B19: CAUACAU (DNA:RNA)
RNA: B16 RNA with A25C, C26A, G27U, U29C, G30A, G31U
DNA 1: CAATCTGAATTCCGGTCTCCC
DNA 2: TGGTGGCTACGACGGGATT
B20: GUGGAGG (DNA:RNA)
RNA: B16 RNA with A25G, C26U, A28G, U29A
DNA 1: CAATCTGAATTCCGGTCTCCC
DNA 2: TGGTGGCTACGACGGGATT

Changes are numbered by the printed parent chain; changes in the protein carry UniProt numbers. The list shows a part of the results.

This test addresses T1, RBFOX1 RRM RbFoxmut (Fox-RRM*) (Homo sapiens, UniProt Q9NWB1 109-208, R118D;E147R;N151S;E152T).
T1 sequence: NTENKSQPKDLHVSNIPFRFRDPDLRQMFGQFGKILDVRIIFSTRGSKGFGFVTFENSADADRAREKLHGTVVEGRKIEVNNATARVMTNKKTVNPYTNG
Kind of test: EMSA; HiTS-Eq, 1 nM pool, 10 min; buffer printed only for the single-RNA assays: 10 mM Tris pH 7.5, 150 mM NaCl, 3.4 mM EDTA, 0.001% NP-40, 30 C. To be noted: tags: His6 N-terminal (pET28a); label: 5' 32P. Put shortly:
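Purified RbFox RRM, wild type or mutant, was incubated for 10 min in 50 µL with 1 nM of a 5′-radiolabelled RNA pool carrying 7 randomized nucleotides, whose flanks were annealed to DNA oligonucleotides, over a series of increasing protein concentrations. Unbound RNA was resolved on 8% native PAGE, cut out, reverse-transcribed, barcoded by PCR and sequenced on an Illumina HiSeq 2500. Relative association constants were derived from changes in read counts for each RNA species versus the control reaction and normalised to the cognate motif.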
For the molecule B1, the binding signal is 0.0823 KA relative to UGCAUGU.

In the case of B2, the binding signal is 0.0802 KA relative to UGCAUGU.

For B3, the binding signal was 0.155 KA relative to UGCAUGU.

Turning to B4, the binding signal was 0.318 KA relative to UGCAUGU.

Regarding B5, the binding signal is 0.0753 KA relative to UGCAUGU.

Take B6: the binding signal is 0.0748 KA relative to UGCAUGU.

For B7, the binding signal is 0.0542 KA relative to UGCAUGU.

As to B8, the binding signal is 0.0833 KA relative to UGCAUGU.

For the molecule B9, the binding signal is 0.0872 KA relative to UGCAUGU.

B10: the binding signal was 0.113 KA relative to UGCAUGU.

Regarding B11, the binding signal is 0.0864 KA relative to UGCAUGU.

On to B12, for which the binding signal was 0.0987 KA relative to UGCAUGU.

For the molecule B13, the binding signal is 0.0905 KA relative to UGCAUGU.

Take B14: the binding signal was 0.116 KA relative to UGCAUGU.

As for B15, the binding signal is 0.0874 KA relative to UGCAUGU.

For the molecule B16, the binding signal was 0.103 KA relative to UGCAUGU.

Turning to B17, the binding signal was 0.0579 KA relative to UGCAUGU.

On to B18, for which the binding signal was 0.0925 KA relative to UGCAUGU.

B19: the binding signal was 0.0896 KA relative to UGCAUGU.

B20: the binding signal is 0.108 KA relative to UGCAUGU.
